# In PubChem BioAssay (Tox21):
# The shares of active, inactive and inconclusive entries below differ from those in the screen. For some assays here: A potency beside an inconclusive call is a rough fit, not a confirmed value. The source holds several records for some structures; these can differ, active in one and inactive in another. The source made the active and inactive calls. Unless noted, calls come from the whole dose curve.
# Columns and labels:
# [1] = qHTS assay to identify small molecule antagonists of the sonic hedgehog signaling (Shh) pathway (AID 1259369); note: potency is the fitted concentration of half-maximal effect; nearly all actives have a fitted effect of over 45% in size
# Outline: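 Antagonist mode: compound added to 3T3 Gli1-Luc cells followed by conditioned-medium stimulation, 24 h at 37 C, 5% CO2. Inhibition taken as loss of Gli1-driven luciferase luminescence.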
# [2] = molecular target: Estrogen receptor beta (Homo sapiens) (UniProt Q92731); test: qHTS assay to identify small molecule antagonists of the estrogen receptor beta (ER-beta) signaling pathway (AID 1259378; active = well fitted inhibition curve with a large enough effect in the signal ratio in the repeat runs, not every such curve was filed as active; inconclusive = weak or mixed curves, or effect the other way; inactive = no such curve, though single readings can be large or run the other way; the % refers to the signal ratio; note: potency is the fitted concentration of half-maximal effect; for activity, negative = inhibition: % is set by controls: 0 for no effect and ±100 for the full control effect); conditions: ER-beta-UAS-bla HEK293T, beta-lactamase FRET ratio, 16 h; activity, negative = inhibition: at 92.4 µM (top of the series) unless noted
# Chain of UniProt Q92731 (Q92731 whole entry, looked up): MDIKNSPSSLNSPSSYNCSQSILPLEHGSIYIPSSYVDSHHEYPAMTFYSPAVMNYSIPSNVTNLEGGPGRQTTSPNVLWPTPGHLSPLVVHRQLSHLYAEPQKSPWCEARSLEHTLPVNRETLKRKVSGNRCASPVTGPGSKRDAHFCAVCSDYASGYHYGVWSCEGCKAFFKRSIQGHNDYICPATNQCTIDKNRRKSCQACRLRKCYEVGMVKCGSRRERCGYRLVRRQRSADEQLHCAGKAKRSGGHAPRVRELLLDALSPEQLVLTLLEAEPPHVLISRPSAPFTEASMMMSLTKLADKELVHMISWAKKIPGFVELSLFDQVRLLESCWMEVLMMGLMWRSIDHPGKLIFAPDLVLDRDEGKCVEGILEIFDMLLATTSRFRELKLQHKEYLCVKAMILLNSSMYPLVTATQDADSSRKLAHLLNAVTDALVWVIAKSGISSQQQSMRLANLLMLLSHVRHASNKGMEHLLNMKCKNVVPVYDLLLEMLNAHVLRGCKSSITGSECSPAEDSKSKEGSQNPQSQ
# Outline: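 ER-beta-UAS-bla HEK293T cells in 2% charcoal-stripped FBS medium treated with compound plus 1nM final 17-beta-estradiol for 16 hr at 37C. Beta-lactamase reporter read by FRET substrate fluorescence after 2 hours at room temperature.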
# [3] = qHTS assay to identify small molecule agonists of the estrogen receptor alpha (ER-alpha) signaling pathway in the presence of an antagonist - cell viability counter screen (AID 1259386; active = well fitted curve in the direction sought with a large enough effect in the repeat runs; inconclusive = weak or mixed curves; inactive = no such curve, though single readings can be large; an effect the other way counts as inactive or inconclusive; note: potency is the fitted concentration of half-maximal effect; nearly all actives have a fitted effect of over 30% in size)
# Outline: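 Compounds tested at 15 concentrations for 22 h at 37C alongside 10.0nM (final) ICI-182,780 antagonist, in VM7Luc4E2 cells grown in phenol red-free, charcoal-stripped medium. Viability read by CellTiter-Fluor fluorescence after 1 h reagent incubation.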
# [4] = molecular target: Progesterone receptor (Homo sapiens) (UniProt P06401); test: qHTS assay to identify small molecule agonists of the progesterone receptor (PR) signaling pathway (AID 1346784); conditions: PR-UAS-bla HEK293T, beta-lactamase FRET ratio, 16 h; activation: at 92.4 µM (top of the series) unless noted; note: nearly all actives have a fitted effect of over 30% in size; note: potency is the fitted concentration of half-maximal effect; for activation: % is set by controls: 0 for no effect and ±100 for the full control effect
# Chain of UniProt P06401 (P06401 whole entry, looked up): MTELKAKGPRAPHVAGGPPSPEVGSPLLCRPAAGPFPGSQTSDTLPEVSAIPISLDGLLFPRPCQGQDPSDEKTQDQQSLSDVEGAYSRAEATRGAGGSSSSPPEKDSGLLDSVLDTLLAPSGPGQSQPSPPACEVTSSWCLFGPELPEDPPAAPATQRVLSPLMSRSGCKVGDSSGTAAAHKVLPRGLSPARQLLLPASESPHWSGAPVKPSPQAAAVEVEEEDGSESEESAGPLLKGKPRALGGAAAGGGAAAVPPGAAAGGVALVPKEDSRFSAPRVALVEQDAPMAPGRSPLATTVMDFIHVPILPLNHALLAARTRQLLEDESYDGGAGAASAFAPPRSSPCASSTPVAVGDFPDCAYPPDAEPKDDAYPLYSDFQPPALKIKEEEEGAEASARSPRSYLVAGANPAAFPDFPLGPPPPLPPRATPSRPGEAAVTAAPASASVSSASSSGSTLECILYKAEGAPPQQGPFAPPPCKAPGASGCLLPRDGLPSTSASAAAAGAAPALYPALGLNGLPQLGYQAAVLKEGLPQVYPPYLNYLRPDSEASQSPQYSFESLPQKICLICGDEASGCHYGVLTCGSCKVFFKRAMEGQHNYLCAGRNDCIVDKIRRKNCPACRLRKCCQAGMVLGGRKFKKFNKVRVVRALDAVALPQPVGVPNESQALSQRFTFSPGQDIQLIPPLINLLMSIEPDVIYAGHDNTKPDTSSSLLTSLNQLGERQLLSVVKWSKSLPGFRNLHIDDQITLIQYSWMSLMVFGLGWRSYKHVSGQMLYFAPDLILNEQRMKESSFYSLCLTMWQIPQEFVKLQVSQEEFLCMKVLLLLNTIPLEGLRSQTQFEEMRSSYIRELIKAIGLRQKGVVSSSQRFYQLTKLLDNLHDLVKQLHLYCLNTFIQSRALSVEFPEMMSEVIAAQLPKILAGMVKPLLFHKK
# Outline: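 Cells (PR-UAS-bla HEK 293T, GripTite) were plated in assay medium containing 2% charcoal-stripped FBS and incubated 6 hr. Test compounds in DMSO were added for 16 hr at 37C. FRET substrate was then loaded for 2 hr at room temperature before fluorescence reading.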
# [5] = molecular target: Progesterone receptor (Homo sapiens) (UniProt P06401); test: qHTS assay to identify small molecule antagonists of the progesterone receptor (PR) signaling pathway (AID 1346795; active = well fitted inhibition curve with a large enough effect in the signal ratio in the repeat runs, not every such curve was filed as active; inconclusive = weak or mixed curves; the % refers to the signal ratio; note: potency is the fitted concentration of half-maximal effect; for activity change, negative = inhibition: % is set by controls: 0 for no effect and ±100 for the full control effect); conditions: PR-UAS-bla HEK293T, beta-lactamase FRET ratio, 16 h; activity change, negative = inhibition: at 92.4 µM (top of the series) unless noted
# Outline: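 Antagonist mode: compounds tested against 1 nM (final) promegestone stimulation in HEK293T cells expressing PR-UAS-bla reporter, 16 hr at 37C, 5% CO2; beta-lactamase activity detected via B/G FRET substrate after 2 hr at room temperature.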
# [6] = qHTS assay to identify small molecule antagonists of the progesterone receptor (PR) signaling pathway - cell viability counter screen (AID 1346798; active = well fitted curve in the direction sought with a large enough effect in the repeat runs; inconclusive = weak or mixed curves; inactive = no such curve, though single readings can be large; an effect the other way counts as inactive or inconclusive; note: potency is the fitted concentration of half-maximal effect; nearly all actives have a fitted effect of over 50% in size)
# Outline: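 Counter screen for cytotoxicity: viability of PR-UAS-bla HEK293T cells was measured with CellTiter-Glo luminescence following 16 hr compound exposure in the presence of R5020.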
# [7] = qHTS assay to identify small molecule agonists of the progesterone receptor (PR) signaling pathway - cell viability counter screen (AID 1346799); note: potency is the fitted concentration of half-maximal effect; nearly all actives have a fitted effect of over 45% in size
# Outline: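 Cells (PR-UAS-bla HEK293T) are plated at 3,000/well in 2% charcoal-stripped FBS medium, rested 6 hr, dosed and incubated 16 hr at 37C. CellTiter-Glo is then added and luminescence measured after 30 min at room temperature.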
# [8] = qHTS assay to identify small molecule agonists of the TGF-beta/Smad signaling pathway (AID 1346859; active = well fitted activation curve with a large enough effect in the signal ratio in the repeat runs, not every such curve was filed as active; inconclusive = weak or mixed curves; the % refers to the signal ratio; note: % is set by controls: 0 for no effect and ±100 for the full control effect); conditions: SBE-bla HEK293T, TGF-beta/Smad beta-lactamase reporter, 5 h; activation: at 76.8 µM (top of the series)
# Outline: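 Reporter line: HEK 293T with stably integrated SBE-controlled beta-lactamase. Compound exposure lasts 5 hr at 37 C and 5% CO2; substrate loading follows for 2 hr at room temperature, with emission read at 460 and 530 nm.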
# [9] = molecular target: Thyrotropin receptor (Homo sapiens) (UniProt P16473); test: qHTS assay to identify small molecule antagonists of the thyroid stimulating hormone receptor (TSHR) signaling pathway (AID 1259385); conditions: TSHR-HEK293 cAMP HTRF, TSH-stimulated antagonist mode; activity change, negative = inhibition: at 92.4 µM (top of the series) unless noted; note: potency is the fitted concentration of half-maximal effect; nearly all actives have a fitted effect of over 20% in size
# Chain of UniProt P16473 (P16473 whole entry, looked up): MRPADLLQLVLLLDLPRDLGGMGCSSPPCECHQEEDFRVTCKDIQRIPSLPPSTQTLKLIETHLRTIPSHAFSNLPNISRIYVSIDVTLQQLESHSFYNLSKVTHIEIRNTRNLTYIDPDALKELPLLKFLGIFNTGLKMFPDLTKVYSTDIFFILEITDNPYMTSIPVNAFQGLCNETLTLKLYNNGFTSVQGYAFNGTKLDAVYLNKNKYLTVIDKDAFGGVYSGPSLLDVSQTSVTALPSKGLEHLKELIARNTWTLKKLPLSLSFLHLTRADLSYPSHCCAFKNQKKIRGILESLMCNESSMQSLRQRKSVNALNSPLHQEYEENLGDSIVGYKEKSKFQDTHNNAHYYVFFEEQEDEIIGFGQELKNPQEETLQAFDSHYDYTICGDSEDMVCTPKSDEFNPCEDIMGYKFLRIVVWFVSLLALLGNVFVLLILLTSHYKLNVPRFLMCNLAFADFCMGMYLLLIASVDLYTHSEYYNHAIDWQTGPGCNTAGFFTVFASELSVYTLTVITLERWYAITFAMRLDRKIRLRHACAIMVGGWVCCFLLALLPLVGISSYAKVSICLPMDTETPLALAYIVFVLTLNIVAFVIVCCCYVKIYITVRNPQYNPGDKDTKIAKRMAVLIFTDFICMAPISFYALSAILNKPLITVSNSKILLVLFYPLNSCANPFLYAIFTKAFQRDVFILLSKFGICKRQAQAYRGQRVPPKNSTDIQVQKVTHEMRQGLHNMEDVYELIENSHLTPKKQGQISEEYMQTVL
# Outline: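 TSHR-HEK293 cells (800/well) plated 18 h, then compounds with Ro20-1724 and TSH at 1.5 ng/mL final, 30 min at room temperature. cAMP quantified by HTRF (cAMP-d2/anti-cAMP-cryptate, 1 h); 15 concentrations in triplicate.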
# [10] = qHTS assay to identify small molecule agonists of the TGF-beta/Smad signaling pathway - cell viability counter screen (AID 1346829; active = well fitted curve in the direction sought with a large enough effect in the repeat runs; inconclusive = weak or mixed curves; inactive = no such curve, though single readings can be large; an effect the other way counts as inactive or inconclusive; note: top concentration of the series differs between compounds; % is set by controls: 0 for no effect and ±100 for the full control effect; nearly all actives have a fitted effect of over 45% in size)
# Outline: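 Cytotoxicity counter screen: CellTiter-Glo luminescence (30 min, room temperature) measured in the SBE-bla HEK 293T reporter wells after 5 hr compound treatment at 37 C and the 2 hr substrate step.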
# [11] = qHTS assay to identify small molecule agonists of the androgen receptor (AR) signaling pathway in the presence of an antagonist - cell viability counter screen (AID 1259379; active = well fitted curve in the direction sought with a large enough effect in the repeat runs; inconclusive = weak or mixed curves; inactive = no such curve, though single readings can be large; an effect the other way counts as inactive or inconclusive; note: potency is the fitted concentration of half-maximal effect; nearly all actives have a fitted effect of over 25% in size)
# Outline: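 Cytotoxicity counter-screen run in the same wells as the nilutamide-challenged (3.0 µM final) AR agonist assay in MDA-kb2 cells. Compounds tested at 15 concentrations for 16 h, 37 °C without CO2; CellTiter-Fluor fluorescence read.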
# [12] = qHTS assay to identify small molecule agonists of the estrogen receptor beta (ER-beta) signaling pathway - cell viability counter screen (AID 1259380; active = well fitted curve in the direction sought with a large enough effect in the repeat runs; inconclusive = weak or mixed curves; inactive = no such curve, though single readings can be large; an effect the other way counts as inactive or inconclusive; note: potency is the fitted concentration of half-maximal effect; nearly all actives have a fitted effect of over 30% in size)
# Outline: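 Cell viability counter screen: CellTiter-Glo luminescence (30 min, room temperature) measured in the same wells as the beta-lactamase readout, after 16 hr compound exposure at 37C of ER-beta-bla HEK293T cells in 2% charcoal-stripped FBS medium.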
# Tags give direction and shape of the fitted curve or compound fluorescence and quenching.
smiles,measurement,setting,value
COCCCOc1ccnc(CS(=O)c2nc3ccccc3[nH]2)c1C (configuration not stated),Potency,[1],"inconclusive: 60.9 µM [inhibitor, partial curve, poor fit]"
same,"activity, negative = inhibition",[2],inconclusive: -27.3%
same,Potency,[3],"inconclusive: 24.2 µM [cytotoxic, full curve]"
same,Potency,[4],"inconclusive: 19.3 µM [falling, partial curve, poor fit]"
same,Potency,[5],active: 60.9 µM
same,Potency,[6],inconclusive: 68.3 µM [cytotoxic]
CC(C)OC(=O)C(C)N(C(=O)c1ccccc1)c1ccc(F)c(Cl)c1 (configuration not stated),Potency,[1],"inconclusive: 1.22 µM [inhibitor, full curve]"
same,Potency,[2],"inconclusive: 68.6 µM [inhibitor, single point]"
same,Potency,[5],active: 24.3 µM
same,Potency,[6],"inconclusive: 68.6 µM [rising, single point]"
same,Potency,[7],"inconclusive: 61.1 µM [rising, partial curve]"
same,Potency,[8],inactive
COc1cc2nc(N3CCN(C(=O)C4COc5ccccc5O4)CC3)nc(N)c2cc1OC (configuration not stated),Potency,[1],"inconclusive: 1.68 µM [inhibitor, full curve, poor fit]"
same,"activity, negative = inhibition",[2],inconclusive: -29.4% [at 42.5 µM]
same,Potency,[9],"inconclusive: 13.3 µM [falling, partial curve]"
same,Potency,[6],"inconclusive: 11.9 µM [rising, full curve]"
O=C(O)c1ccccc1Nc1cc(Cl)ccc1C(=O)O,Potency,[1],"inconclusive: 16.4 µM [inhibitor, single point]"
same,Potency,[2],"inconclusive: 11.6 µM [activator, partial curve, poor fit]"
same,activation,[4],inconclusive: -10.7% [at 19 µM]
same,Potency,[5],inconclusive: 16.4 µM [single point]
same,Potency,[6],active: 13 µM
same,Potency,[7],inconclusive: 16.4 µM [cytotoxic]
Cc1ccncc1,Potency,[1],"inconclusive: 0.611 µM [inhibitor, single point]"
same,Potency,[2],inactive
same,Potency,[4],inactive
same,"activity change, negative = inhibition",[5],inconclusive: 5.06%
same,Potency,[10],inactive
O=C(NC1CCN(CCc2c[nH]c3ccccc23)CC1)c1ccccc1,Potency,[1],"inconclusive: 15 µM [inhibitor, partial curve]"
same,Potency,[11],"inconclusive: 47.3 µM [cytotoxic, partial curve, poor fit]"
same,Potency,[12],"inconclusive: 33.5 µM [cytotoxic, partial curve, poor fit]"
same,Potency,[3],"inconclusive: 15 µM [cytotoxic, partial curve, poor fit]"
same,Potency,[4],inactive
